Experimental data reported in the supplement of paper PMC11876631.
± gives the standard deviation of the averaged measurements. Laboratory Escherichia coli strains with one amino-acid change in an essential protein, pooled on minimal glucose agar with carbenicillin or gentamicin at twice the control MIC (plus kanamycin and chloramphenicol for the plasmids), 48 h. Fold change of barcode share against drug-free plates; higher = less susceptible. Active = above 20 in both replicates (the paper's putatively resistant). '<' = one read or none on drug, '>' = one read or none on a drug-free plate. Shares are relative, so most strains fall below 1 when a few take over. Listed are strains with at least 15 reads on both drug-free plates, and hits; most hits rest on fewer reference reads. Replicate rank correlation about 0.5. Edits are read from barcodes.

B1: gmk I123A (protein)
chain: MAQGTLYIVSAPSGAGKSSLIQALLKTQPLYDTQVSVSHTTRQPRPGEVHGEHYFFVNHDEFKEMISRDAFLEHAEVFGNYYGTSREAIEQVLATGVDVFLDIDWQGAQQIRQKMPHARSIFALPPSKIELDRRLRGRGQDSEEVIAKRMAQAVAEMSHYAEYDYLIVNDDFDTALTDLKTIIRAERLRMSRQKQRHDALISKLLAD
B2: gmk L124A (protein)
chain: MAQGTLYIVSAPSGAGKSSLIQALLKTQPLYDTQVSVSHTTRQPRPGEVHGEHYFFVNHDEFKEMISRDAFLEHAEVFGNYYGTSREAIEQVLATGVDVFLDIDWQGAQQIRQKMPHARSIFIAPPSKIELDRRLRGRGQDSEEVIAKRMAQAVAEMSHYAEYDYLIVNDDFDTALTDLKTIIRAERLRMSRQKQRHDALISKLLAD
B3: gmk L124W (protein)
chain: MAQGTLYIVSAPSGAGKSSLIQALLKTQPLYDTQVSVSHTTRQPRPGEVHGEHYFFVNHDEFKEMISRDAFLEHAEVFGNYYGTSREAIEQVLATGVDVFLDIDWQGAQQIRQKMPHARSIFIWPPSKIELDRRLRGRGQDSEEVIAKRMAQAVAEMSHYAEYDYLIVNDDFDTALTDLKTIIRAERLRMSRQKQRHDALISKLLAD
B4: gmk L124Q (protein)
chain: MAQGTLYIVSAPSGAGKSSLIQALLKTQPLYDTQVSVSHTTRQPRPGEVHGEHYFFVNHDEFKEMISRDAFLEHAEVFGNYYGTSREAIEQVLATGVDVFLDIDWQGAQQIRQKMPHARSIFIQPPSKIELDRRLRGRGQDSEEVIAKRMAQAVAEMSHYAEYDYLIVNDDFDTALTDLKTIIRAERLRMSRQKQRHDALISKLLAD
B5: gmk L124D (protein)
chain: MAQGTLYIVSAPSGAGKSSLIQALLKTQPLYDTQVSVSHTTRQPRPGEVHGEHYFFVNHDEFKEMISRDAFLEHAEVFGNYYGTSREAIEQVLATGVDVFLDIDWQGAQQIRQKMPHARSIFIDPPSKIELDRRLRGRGQDSEEVIAKRMAQAVAEMSHYAEYDYLIVNDDFDTALTDLKTIIRAERLRMSRQKQRHDALISKLLAD
B6: gmk L24A (protein)
chain: MAQGTLYIVSAPSGAGKSSLIQAALKTQPLYDTQVSVSHTTRQPRPGEVHGEHYFFVNHDEFKEMISRDAFLEHAEVFGNYYGTSREAIEQVLATGVDVFLDIDWQGAQQIRQKMPHARSIFILPPSKIELDRRLRGRGQDSEEVIAKRMAQAVAEMSHYAEYDYLIVNDDFDTALTDLKTIIRAERLRMSRQKQRHDALISKLLAD
B7: gmk L24Q (protein)
chain: MAQGTLYIVSAPSGAGKSSLIQAQLKTQPLYDTQVSVSHTTRQPRPGEVHGEHYFFVNHDEFKEMISRDAFLEHAEVFGNYYGTSREAIEQVLATGVDVFLDIDWQGAQQIRQKMPHARSIFILPPSKIELDRRLRGRGQDSEEVIAKRMAQAVAEMSHYAEYDYLIVNDDFDTALTDLKTIIRAERLRMSRQKQRHDALISKLLAD
B8: gmk L179A (protein)
chain: MAQGTLYIVSAPSGAGKSSLIQALLKTQPLYDTQVSVSHTTRQPRPGEVHGEHYFFVNHDEFKEMISRDAFLEHAEVFGNYYGTSREAIEQVLATGVDVFLDIDWQGAQQIRQKMPHARSIFILPPSKIELDRRLRGRGQDSEEVIAKRMAQAVAEMSHYAEYDYLIVNDDFDTALTDAKTIIRAERLRMSRQKQRHDALISKLLAD
B9: gmk L179W (protein)
chain: MAQGTLYIVSAPSGAGKSSLIQALLKTQPLYDTQVSVSHTTRQPRPGEVHGEHYFFVNHDEFKEMISRDAFLEHAEVFGNYYGTSREAIEQVLATGVDVFLDIDWQGAQQIRQKMPHARSIFILPPSKIELDRRLRGRGQDSEEVIAKRMAQAVAEMSHYAEYDYLIVNDDFDTALTDWKTIIRAERLRMSRQKQRHDALISKLLAD
B10: groS L92A (protein)
chain: MNIRPLHDRVIVKRKEVETKSAGGIVLTGSAAAKSTRGEVLAVGNGRILENGEVKPLDVKVGDIVIFNDGYGVKSEKIDNEEVLIMSESDIAAIVEA
B11: groS L92D (protein)
chain: MNIRPLHDRVIVKRKEVETKSAGGIVLTGSAAAKSTRGEVLAVGNGRILENGEVKPLDVKVGDIVIFNDGYGVKSEKIDNEEVLIMSESDIDAIVEA
B12: groS V26A (protein)
chain: MNIRPLHDRVIVKRKEVETKSAGGIALTGSAAAKSTRGEVLAVGNGRILENGEVKPLDVKVGDIVIFNDGYGVKSEKIDNEEVLIMSESDILAIVEA
B13: groS V26W (protein)
chain: MNIRPLHDRVIVKRKEVETKSAGGIWLTGSAAAKSTRGEVLAVGNGRILENGEVKPLDVKVGDIVIFNDGYGVKSEKIDNEEVLIMSESDILAIVEA
B14: groS V26Q (protein)
chain: MNIRPLHDRVIVKRKEVETKSAGGIQLTGSAAAKSTRGEVLAVGNGRILENGEVKPLDVKVGDIVIFNDGYGVKSEKIDNEEVLIMSESDILAIVEA
B15: groS V26D (protein)
chain: MNIRPLHDRVIVKRKEVETKSAGGIDLTGSAAAKSTRGEVLAVGNGRILENGEVKPLDVKVGDIVIFNDGYGVKSEKIDNEEVLIMSESDILAIVEA
B16: groS V26P (protein)
chain: MNIRPLHDRVIVKRKEVETKSAGGIPLTGSAAAKSTRGEVLAVGNGRILENGEVKPLDVKVGDIVIFNDGYGVKSEKIDNEEVLIMSESDILAIVEA
B17: groS L27A (protein)
chain: MNIRPLHDRVIVKRKEVETKSAGGIVATGSAAAKSTRGEVLAVGNGRILENGEVKPLDVKVGDIVIFNDGYGVKSEKIDNEEVLIMSESDILAIVEA
B18: groS L27W (protein)
chain: MNIRPLHDRVIVKRKEVETKSAGGIVWTGSAAAKSTRGEVLAVGNGRILENGEVKPLDVKVGDIVIFNDGYGVKSEKIDNEEVLIMSESDILAIVEA
B19: groS L27Q (protein)
chain: MNIRPLHDRVIVKRKEVETKSAGGIVQTGSAAAKSTRGEVLAVGNGRILENGEVKPLDVKVGDIVIFNDGYGVKSEKIDNEEVLIMSESDILAIVEA
B20: groS L27D (protein)
chain: MNIRPLHDRVIVKRKEVETKSAGGIVDTGSAAAKSTRGEVLAVGNGRILENGEVKPLDVKVGDIVIFNDGYGVKSEKIDNEEVLIMSESDILAIVEA
B21: groS L27P (protein)
chain: MNIRPLHDRVIVKRKEVETKSAGGIVPTGSAAAKSTRGEVLAVGNGRILENGEVKPLDVKVGDIVIFNDGYGVKSEKIDNEEVLIMSESDILAIVEA
B22: groS L41A (protein)
chain: MNIRPLHDRVIVKRKEVETKSAGGIVLTGSAAAKSTRGEVAAVGNGRILENGEVKPLDVKVGDIVIFNDGYGVKSEKIDNEEVLIMSESDILAIVEA
B23: groS L41D (protein)
chain: MNIRPLHDRVIVKRKEVETKSAGGIVLTGSAAAKSTRGEVDAVGNGRILENGEVKPLDVKVGDIVIFNDGYGVKSEKIDNEEVLIMSESDILAIVEA
B24: argG L114A (protein)
chain: MTTILKHLPVGQRIGIAFSGGLDTSAALLWMRQKGAVPYAYTANLGQPDEEDYDAIPRRAMEYGAENARLIDCRKQLVAEGIAAIQCGAFHNTTGGLTYFNTTPLGRAVTGTMAVAAMKEDGVNIWGDGSTYKGNDIERFYRYGLLTNAELQIYKPWLDTDFIDELGGRHEMSEFMIACGFDYKMSVEKAYSTDSNMLGATHEAKDLEYLNSSVKIVNPIMGVKFWDESVKIPAEEVTVRFEQGHPVALNGKTFSDDVEMMLEANRIGGRHGLGMSDQIENRIIEAKSRGIYEAPGMALLHIAYERLLTGIHNEDTIEQYHAHGRQLGRLLYQGRWFDSQALMLRDSLQRWVASQITGEVTLELRRGNDYSILNTVSENLTYKPERLTMEKGDSVFSPDDRIGQLTMRNLDITDTREKLFGYAKTGLLSSSAASGVPQVENLENKGQ

These proteins were tested against Escherichia coli (laboratory strain) (assay: barcode share on antibiotic plates over drug-free plates; higher = less susceptible). Details: antibiotic: carbenicillin; 2× MIC (3.1 µg/mL).
Method: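 A pool of E. coli strains, each edited to carry one amino-acid change in an essential protein, was grown for 48 h on minimal glucose agar with or without antibiotic; strain barcodes were sequenced; mean of two replicates.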

Protein	fold change of barcode share
B1	0.34 ± 0.034
B2	0.213 ± 0.11
B3	0.24623 ± 0.00017
B4	0.17 ± 0.098
B5	0.413 ± 0.081
B6	0.251 ± 0.041
B7	0.366 ± 0.039
B8	0.417 ± 0.3
B9	0.23 ± 0.018
B10	0.29 ± 0.1
B11	0.231 ± 0.12
B12	0.264 ± 0.0078
B13	0.391 ± 0.17
B14	0.46 ± 0.31
B15	0.244 ± 0.047
B16	0.0622 ± 0.039
B17	0.403 ± 0.13
B18	0.219 ± 0.082
B19	0.334 ± 0.12
B20	0.313 ± 0.16
B21	0.396 ± 0.053
B22	0.381 ± 0.055
B23	0.43 ± 0.13
B24	0.212 ± 0.022

Same assay, conditions: antibiotic: gentamicin; 2× MIC (MIC 0.45 µg/mL)

Protein	fold change of barcode share
B1	0.031 ± 0.031
B6	< 0.0153
B8	< 0.0123
B9	< 0.00687
B10	< 0.00589
B11	0.00916 ± 0.0052
B12	0.0167 ± 0.018
B13	0.00946 ± 0.0047
B14	0.00749 ± 0.0031
B15	0.0425 ± 0.054
B17	< 0.0067
B18	0.00689 ± 0.0065
B19	< 0.00303
B20	< 0.0122
B21	< 0.00427
B22	0.00861 ± 0.00092
B23	0.0964 ± 0.02
B24	0.00401 ± 0.0037
